The campaign covered roughly 50,000 compounds. About 800 (1.6%) showed an effect of 50% or more. The list shows a part of the results.
Target: Bcl-2-like protein 10 (Homo sapiens) (UniProt Q9HD36)
Assay: Phenotype converters, Bcl-B/TR3 peptide binding displacement, primary biochemical FP (AID 1240);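 note: 0% = Bcl-B with tracer peptide and DMSO and 100% = tracer peptide lacking Bcl-B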
Settings: GST-Bcl-B / FITC-TR3 peptide fluorescence polarization; stronger effect = higher value; compound at 3.75 mg/L

Sequence of UniProt Q9HD36 (Q9HD36 whole entry, looked up): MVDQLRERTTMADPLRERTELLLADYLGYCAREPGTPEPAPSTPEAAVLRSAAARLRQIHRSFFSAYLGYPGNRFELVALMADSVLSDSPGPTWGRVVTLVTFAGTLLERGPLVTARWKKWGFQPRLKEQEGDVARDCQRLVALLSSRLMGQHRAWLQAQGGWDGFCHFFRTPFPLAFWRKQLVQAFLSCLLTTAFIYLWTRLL

Row | SMILES | displacement [%]
1 | Cc1nc2nc[nH]n2c(=O)c1Cc1ccccc1 | 5.2
2 | N#Cc1cccc2c1-c1ccccc1/C2=N\NC(N)=O | 1.4
3 | CC(=O)O/N=C1\Sc2ccccc2C1=O | 8.5
4 | Cc1c(NC(=S)NC(=O)c2ccco2)cccc1-c1nc2ncccc2o1 | 9.2
5 | CC1=C(C(=O)OCCOc2ccccc2)C(c2cccc([N+](=O)[O-])c2)C2=C(CCCC2=O)N1 (stereo not drawn) | -3.9
6 | CCC(C)(C)C1CCc2c(sc(N)c2C#N)C1 (stereo not drawn) | -18.4
7 | COc1cc(/C=C2\SC(c3ccc(C)cc3)=NC2=O)cc(OC)c1O | -38.9
8 | C/C(CCc1ccccc1)=N\NC(=O)CN(Cc1ccco1)S(=O)(=O)c1ccccc1 | -1.3
9 | CS(=O)(=O)N(CC(=O)NCCSc1ccccn1)c1cccc(Cl)c1 | -5
10 | CCc1c(C)sc(NC(=O)c2ccccc2F)c1C#N | -0.2
11 | CCOc1cc(OCC)cc(C(=O)Nc2ccc(C(C)=O)cc2)c1 | 7.6
12 | Cn1c(=O)cc(-c2ccccc2)c2cc(Cl)ccc21 | 14.7
13 | CCOC(=O)c1csc(NC(=O)c2ccc(C(=O)c3ccccc3)cc2)n1 | -24.4
14 | Cc1ccc(NC(=S)Nc2ccc(F)cc2)c(C)c1 | 8.5
15 | CCOC(=O)C1=CN(c2ccc(OCC)cc2)C=C(C(=O)OCC)C1c1ccccc1OC | 6.5
16 | COC(=O)c1ccc(NC(=O)Cn2nc(C)c3ccccc3c2=O)cc1 | -8.7
17 | O=S(N1CCOCC1)C12CC3CC(CC(C3)C1)C2 (stereo not drawn) | -0.8
18 | COCCNC(=O)C(=O)Nc1ccccc1OC | 13.7
19 | O=C1/C(=C\c2ccc(-c3cccc([N+](=O)[O-])c3)o2)SC(=S)N1CCc1ccccc1 | 114
20 | Cc1cc(OCC(=O)Nc2ccc(-c3nc4ccccc4o3)c(O)c2)ccc1Cl | 14.8
21 | O=C(Cn1c(O)c(N=NC(=O)C(=O)Nc2cccc([N+](=O)[O-])c2)c2ccccc21)Nc1ccccc1 | -11.8
22 | CCOc1ccc(/C=C2\C(=O)NC(=O)N(c3ccc(C)cc3)C2=O)cc1Cl | 3
23 | COc1cc(NC(=O)c2ccc(Cl)cc2)c(Cl)cc1N=NC1=C(O)CC(C)(C)CC1=O | -1

Row | SMILES | displacement [%]
24 | Nc1nnc(CSCc2ccccc2)s1 | 1.8
25 | CCN(CC)CCCNC(=O)c1cc([N+](=O)[O-])ccc1Cl | -4.4
26 | COc1ccc(/C=C2/N=C(c3ccc(Br)cc3)OC2=O)cc1 | 99.4
27 | CC(=O)Nc1cccc(N2CCCC2=O)c1 | -4.2
28 | Cc1cccc(N(CC(O)CN(Cc2ccccc2)Cc2ccccc2)S(=O)(=O)c2ccccc2)c1 (stereo not drawn) | 14.3
29 | COc1ccc(/C=C2\NC(=O)c3ccccc3C2=O)cc1 | 25.7
30 | O=C(NN1C(=O)c2ccc(Oc3ccc([N+](=O)[O-])cc3)cc2C1=O)c1ccco1 | 12.4
31 | O=C1NC(=Nc2ccc(Cl)c(Cl)c2)S/C1=C/c1ccccc1O | 7.8
32 | Cc1oc(C(N)=O)cc1COc1ccc(C(N)=O)cc1 | -5.7
33 | O=C(COc1ccc(F)cc1)Nc1ccc2[nH]c(=O)[nH]c2c1 | 7.6
34 | O=C(NC(=S)Nc1ccc([N+](=O)[O-])cc1)c1ccc(Cl)cc1 | -1.6
35 | Cc1ccc(OCC(=O)Nc2sc3c(c2C(N)=O)CCC3)c(C)c1 | 12.8
36 | O=C(c1ccc([N+](=O)[O-])cc1)N1CCN(Cc2ccc(F)cc2)CC1 | -14.9
37 | N#CC1=C(N)Oc2c(sc3ccccc23)C1c1cccs1 (stereo not drawn) | -32.2
38 | CN1CCN(C(=O)c2cc3nc(-c4ccccc4)cc(C(F)(F)F)n3n2)CC1 | 0.7
39 | Nc1nnc(COc2ccccc2F)s1 | 7.4
40 | O=C1c2ccc(Oc3ccc4c(c3)C(=O)N(c3ccc(S)cc3)C4=O)cc2C(=O)N1c1ccc(S)cc1 | -19
41 | O=C(NNc1nc2ccccc2s1)c1ccc(Br)cc1 | -14.5
42 | CCCCNCCCCCCOc1ccccc1CC | -6
43 | CC(C)(C)c1ccc(C(=O)Nc2sc3c(c2C(N)=O)CCCCC3)cc1 | -3.7
44 | COc1ccc(S(=O)(=O)N(Cc2ccccc2)c2ccccc2C(=O)N2CCOCC2)cc1 | -1.1
45 | COc1ccc(NC(=O)CN(c2ccc(OC)cc2OC)S(=O)(=O)c2ccc(C)cc2)c(OC)c1 | 1.7
46 | COc1ccc(Cc2cnc(NC(=O)c3cccc([N+](=O)[O-])c3)s2)cc1 | -6.9

Row | SMILES | displacement [%]
47 | Cc1ccc(C(C)C)c(OCCNc2nc3c(c(=O)n(C)c(=O)n3C)n2C)c1 | 11.4
48 | CC(C)(C)NC(=O)CCN1C(=O)c2ccccc2C1=O | 0.8
49 | O=C(O)CSc1nnc(-c2ccc3c(c2)OCO3)n1-c1ccccc1 | 11.7
50 | O=C(CCC1CCCC1)NCC1CCCO1 (stereo not drawn) | -8
51 | COC(=O)C1=C(C)N(CC(C)C)C(=O)/C1=C\c1cc(OC)c(OC)c(OC)c1 | -4.2
52 | Cc1ccc(S(N)(=O)=O)cc1NC(=O)c1ccc(Cl)cc1[N+](=O)[O-] | 3.4
53 | COc1cc(NC(=O)COc2ccc(Cl)cc2)ccc1NC(=O)c1ccco1 | 0
54 | COc1cccc(-n2c(C=C3C(=O)N(C)c4ccc(Br)cc43)nc3ccccc3c2=O)c1 | 1
55 | O=C(O)c1ccc(S(=O)(=O)c2ccc3c(c2)C(=O)N(c2ccc(Sc4ccc([N+](=O)[O-])cc4)cc2)C3=O)cc1 | 9.6
56 | COc1c(Cl)cc(Cl)cc1/C=C(\C#N)c1nn(CCO)c(N)c1C#N | 7.3
57 | O=C(Nc1nnc(SCc2ccccc2)s1)c1cccc2ccccc12 | 9.8
58 | COc1ccc(S(=O)(=O)N2CCN(C3CCCCCC3)CC2)cc1 | -14.5
59 | Oc1ccc(Cl)cc1/C=N/c1c(-c2ccco2)nc2cc(Cl)ccn12 | 7.9
60 | O=C(O)c1cccc(-c2ccc(/C=N/N3C(=O)C4C(C3=O)C3C=CC4C34CC4)o2)c1 (stereo not drawn) | 8.9
61 | COc1cc(/C=C2\C(=O)NC(=S)N(c3ccc(Cl)cc3)C2=O)ccc1OCC(=O)O | 7.5
62 | CCOc1ccc(NC(=O)c2ccc(OC)c(OC)c2)c([N+](=O)[O-])c1 | 20.5
63 | CCN(CC)c1ccc(C=Nc2cccc([N+](=O)[O-])c2C)cc1 | 12.4
64 | COc1ccc(C(=O)NC2CC(C)(C)NC(C)(C)C2)cc1OC | -2.1
65 | CC1CC2(C)CC(C)C1(COC(=O)Nc1ccccc1)CO2 (stereo not drawn) | -7.3
66 | CC(=O)CC(=O)Nc1ccc(NC(C)=O)cc1 | 0
67 | CC(C)=NNc1nc2sc3c(c2c(=O)n1-c1ccc(C)cc1)CC(C)(C)OC3 | -2.7
68 | Cn1c(=O)cc2c3c(c(Nc4cccc(Cl)c4)ccc31)C(=O)c1ccccc1-2 | 15.7
